According to paper PMC4336329 (PLoS ONE, 2015):
The campaign covered roughly 310,000 compounds. About 2,200 (0.71%) showed an effect of 50% or more. The effect is printed as a negative number. The list shows a part of the results.

Target: human ether-à-go-go-related gene (hERG) potassium channel (human, UniProt Q12809)
Assay: primary screen, population patch clamp on CHO cells stably expressing hERG

Sequence of human ether-à-go-go-related gene (hERG) potassium channel (Q12809 whole entry, looked up): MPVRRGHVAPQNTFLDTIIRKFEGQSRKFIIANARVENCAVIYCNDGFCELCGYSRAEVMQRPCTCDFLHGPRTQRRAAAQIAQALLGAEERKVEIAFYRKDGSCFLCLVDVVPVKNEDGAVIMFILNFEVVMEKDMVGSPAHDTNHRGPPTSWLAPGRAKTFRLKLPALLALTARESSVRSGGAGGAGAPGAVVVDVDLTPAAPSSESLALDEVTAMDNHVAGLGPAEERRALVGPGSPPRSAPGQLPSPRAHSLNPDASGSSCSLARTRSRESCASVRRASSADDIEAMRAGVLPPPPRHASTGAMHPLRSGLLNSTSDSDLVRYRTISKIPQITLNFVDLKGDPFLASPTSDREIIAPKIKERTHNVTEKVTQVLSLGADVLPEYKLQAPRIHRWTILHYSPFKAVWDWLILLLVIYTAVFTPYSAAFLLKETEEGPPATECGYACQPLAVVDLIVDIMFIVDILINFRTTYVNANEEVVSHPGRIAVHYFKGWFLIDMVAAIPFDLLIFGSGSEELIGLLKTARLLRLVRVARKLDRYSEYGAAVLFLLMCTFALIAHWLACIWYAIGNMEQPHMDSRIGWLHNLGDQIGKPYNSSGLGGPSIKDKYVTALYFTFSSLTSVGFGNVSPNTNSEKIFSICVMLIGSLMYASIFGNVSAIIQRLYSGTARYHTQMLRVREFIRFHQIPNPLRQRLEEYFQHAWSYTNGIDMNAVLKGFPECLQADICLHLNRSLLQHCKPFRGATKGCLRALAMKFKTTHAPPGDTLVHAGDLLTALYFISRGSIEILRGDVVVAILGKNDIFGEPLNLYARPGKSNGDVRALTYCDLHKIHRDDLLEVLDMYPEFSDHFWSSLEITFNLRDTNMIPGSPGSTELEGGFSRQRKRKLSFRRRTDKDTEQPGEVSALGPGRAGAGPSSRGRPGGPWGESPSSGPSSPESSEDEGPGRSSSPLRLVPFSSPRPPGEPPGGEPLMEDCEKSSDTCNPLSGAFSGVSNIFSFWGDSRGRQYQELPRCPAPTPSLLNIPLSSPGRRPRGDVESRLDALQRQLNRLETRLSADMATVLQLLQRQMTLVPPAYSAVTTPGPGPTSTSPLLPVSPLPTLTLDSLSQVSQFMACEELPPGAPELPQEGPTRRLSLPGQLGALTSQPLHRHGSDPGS

SMILES | hERG current change (%, negative = inhibition) at 1uM [%]
CCOC(=O)C1(CCOC)CCN(Cc2ccc(COC)o2)CC1 | 21.7
COc1ccc(SCCc2ccncc2)cc1.Cl | 1.8
Cc1ccccc1N1CCN(C(=O)c2ccccc2NC(=O)c2ccccc2C(=O)O)CC1 | 13.1
COc1ccc2cc(C(=O)NCc3ccccc3)[nH]c2c1.Cl | 10.1
COc1ccc2oc(=O)c(C(=O)NCc3ccccn3)cc2c1 | 1.74
CC(=O)c1c(C)[nH]c(C(=O)OCCCCN2C(=O)c3ccccc3C2=O)c1C | 8.72
COC(=O)c1cc(OC)c(OC)cc1NC(=S)N1CCCCC1 | -2.5
CCNC(=O)C1CN(S(=O)(=O)c2ccccc2)CCN1S(=O)(=O)c1ccccc1 (stereo not drawn) | 8.46
O=C(CNC(=O)N1CC(=O)Nc2ccccc21)NCc1ccc(Cl)cc1 | 14.3
Cc1ccc(S(=O)(=O)N2CCN(C(=O)c3cc4c(C)nn(-c5ccccc5C)c4s3)CC2)cc1 | -2.25
CCOCCCNc1c2c(nc3cc(-c4ccc(F)cc4)nn13)CCC2 | 11
Br.CCn1c(=N)n(CC(=O)C23CC4CC(CC(C4)C2)C3)c2ccccc21 | -6.65
CCOc1ccc(NC(=O)C2CC(=O)N(CC)C(=Nc3ccc4c(c3)OCO4)S2)cc1 (stereo not drawn) | 16.2
CN1C(=O)C(=Cc2ccc(SC3CCCCC3)o2)C(=O)N(C)C1=O | 6.95
Cc1ccc(Oc2nn[nH]n2)cc1 | 3.02
Cc1ccc(S(=O)(=O)N2CCN(S(C)(=O)=O)C2c2ccccc2)cc1 (stereo not drawn) | 1.31
Cc1cc(C)c(C)c(OCCOCCN2CCN(C)CC2)c1 | 12.3
CCn1nc(C)c(NS(=O)(=O)c2ccccc2)c1C | 10.8
Cc1c(C)n(C)c2ccc(C(=O)N3CCN(c4ccccn4)CC3)cc12 | 7.44

SMILES | hERG current change (%, negative = inhibition) at 1uM [%]
CSc1nsc(NC(=O)Nc2ccccc2)n1 | 10.3
O=C(O)c1ccc(S(=O)(=O)Nc2ccc(F)c(Cl)c2)cc1 | 12
Cc1cccc2cc(CN(Cc3cccnc3)C(=O)c3ccccc3F)c(Cl)nc12 | -2.26
O=c1ccnc(Nc2ccc(Cl)cc2)[nH]1 | 3.38
O=C(Cn1ncn2c(cc3ccccc32)c1=O)NCc1ccco1 | 7.29
CCOc1cccc(CNCCc2c(C)[nH]c3ccc(OC(F)(F)F)cc23)c1O.O=C(O)C(=O)O | -4.67
CCOC(=O)c1cnc(SCC)[nH]c1=O | -6.55
CC(Oc1ccc2ccc(=O)oc2c1)C(=O)NCC1CCC(C(=O)O)CC1 (stereo not drawn) | -8.59
Cc1cccc(OCC(=O)Nc2c3c(nn2C(C)(C)C)CS(=O)(=O)C3)c1 | 5.09
CCCCn1c(N)c(C(=O)OCCOC)c2nc3ccccc3nc21 | -12.1
CCN1C(=O)[C@@H]2[C@H](C1=O)[C@@H]1CC(C(=O)OC)=C[C@@H](C(=O)OC)C3C1=C(C(=O)C3(CC)CC)[C@@H]2C (stereo partly drawn) | 7.97
COC(=O)/C(=C/c1ccc(OC)cc1)NC(=O)c1ccco1 | 5.8
Cl.O=C(NCCN1CCN(c2ccccc2)CC1)c1cccc(Cl)c1 | 0.892
COc1ccc(C(=O)Nc2nnc(Cc3ccc(OC)c(OC)c3)s2)c(OC)c1 | 1.12
Br.CCCc1cc(-c2nc(-c3ccc(Br)cc3)cs2)ccn1 | 13.9
C=CCN(CC=C)C(=S)NC(=O)c1ccc(OC)cc1 | 16.7
Cc1ccc(S(=O)(=O)Nc2cc3c(cc2N2CCOCC2)n(C)c(=O)c(=O)n3C)cc1 | -1.36
Cn1cc(S(=O)(=O)N2CCN(c3cccc(C(F)(F)F)c3)CC2)c(=O)n(C)c1=O | -2.59
Cn1cc([N+](=O)[O-])cc1-c1nc2ccccc2n1C | 12.6

SMILES | hERG current change (%, negative = inhibition) at 1uM [%]
CC(=O)c1cccc(NC(=O)c2csc3c2CCCCC3)c1 | 6.78
Nc1c(N(CCC2=CCCCC2)C(=O)Cc2ccccc2F)c(=O)[nH]c(=O)n1Cc1ccccc1 | 9.71
CCn1nc(C(=O)NNC(=O)COc2ccccc2C)c2ccccc2c1=O | -3.29
NC(=O)C1CCN(C(=O)c2cc(S(=O)(=O)N3CCOCC3)c(Cl)cc2Cl)CC1 | 14
O=C(NCCO)c1ccccc1O | 15.7
Cc1ccc(S(=O)(=O)N2CC=C(C(=O)NCc3ccccc3)CC2)cc1 | -4.37
O=C(NCc1ccccn1)[C@H]1C[C@@H]1[C@H](NP(=O)(c1ccccc1)c1ccccc1)c1ccccc1 | 7.04
Cc1ccc(CNC(=O)CCCOc2cc(=O)n(C)c3ccccc23)o1 | 1.41
CC(=O)c1ccc(N2CCN(Cc3nc4ccccc4[nH]3)CC2)cc1 | -2.21
O=C(/C=C/c1ccccc1)NC(=S)Nc1ccccc1 | 14.8
COc1ccc(/C=C(/C#N)C(=O)Nc2ccccc2C)cc1C(=O)O | 16
O=C(COc1ccc2ccccc2c1Br)N1CCCC1 | 9.68
COc1ccc(NC(=O)Cn2nnc(C(=O)Nc3ccc(F)c(Cl)c3)c2N)cc1 | 14.9
CCN(CC)S(=O)(=O)c1ccc(NC(=O)c2ccc(Cl)nc2)cc1 | 3.43
COC(=O)c1ccsc1NC(=O)CCS(=O)(=O)c1ccccc1 | 14.5
CCc1ccccc1NC(=O)C1CCN(C(=O)c2cccs2)CC1 | 3.75
COc1ccc(C2NC(c3ccc(OC)c(OC)c3OC)C(C)C(=O)C2C)c(OC)c1OC.Cl (stereo not drawn) | 17
COc1ccc(CN2CC(C(=O)NCCc3ccc(Cl)cc3)CC2=O)cc1 (stereo not drawn) | 0.596
COc1ccc(OC)c(Nc2nc(NCc3ccco3)c3ccccc3n2)c1.Cl | 9.92
